Laboratory results published in ChEMBL document CHEMBL4888484, “Replenishing the malaria drug discovery pipeline: Screening and hit evaluation of the MMV Hit Generation Library 1 (HGL1) against asexual blood stage Plasmodium falciparum ,using a nano luciferase reporter read-out” (2022).
About 540 (0.36%) of roughly 150,000 compounds showed an effect of 50% or more. This is one part of the list.

Test system: Plasmodium falciparum
Assay: Primary screen in NF54 nanoGlo assay, in single point, at 2uM, 72h; a lower Z score goes with more inhibition
Format: functional, Erythrocyte
Conditions: timepoint 72 hour

| SMILES | % Inhibition [%] | Z score |
| --- | --- | --- |
| Cc1sc(-c2nc(-c3cccc(Cl)c3)no2)cc1S(=O)(=O)NCCN1CCCC1 | -6 | 0.74 |
| CCN(CC)C(=O)N1CCN(Cc2nc(C(C)(C)C)no2)CC1 | -6 | 1.28 |
| CCCCOc1ccc(N2C(=O)C3ON(c4ccccc4)C(c4ccncc4)C3C2=O)cc1 (stereo not given) | -12 | 1.25 |
| CC(C#N)C(=O)NC1CCCC(F)(F)C1 (stereo not given) | 6 | -0.62 |
| CC(=O)c1ccc(-n2nnc(C(=O)c3ccc(Cl)cc3Cl)c2C)cc1 | -6 | 0.77 |
| NCc1ccc(Br)c(C(F)(F)F)c1 | -18 | 2.02 |
| CC(C)(C)OC(=O)N1Cc2ccc(NCc3cscn3)cc2C1 | 1 | -0.21 |
| Cc1nccn1CC1(CNC(=O)c2ccc(-c3nccn3C)cc2)CC1 | -15 | 1.81 |
| CC(C)C[C@H]1NC(=O)[C@@H](c2ccc(O)cc2)NC1=O | 5 | -0.83 |
| COc1ccc(NC(=O)Cn2c(=O)n(-c3ccc(F)cc3)c(=O)c3c2cc(C)n3C)cc1 | -9 | 1.49 |
| CC(C)(O)C(=O)N1CCC2CCC(C1)N2Cc1ccccc1 (stereo not given) | 1 | -0.21 |
| Cc1nnc(NC(=O)[C@H](C)Nc2ccc(F)cc2)s1 | -17 | 1.95 |
| Cc1cc(C)n(-c2ccc(C(=O)N(C)CCc3noc(C4CC4)n3)cc2)n1 | -3 | 0.41 |
| Cc1cccc(C)c1NC(=O)N(C)[C@H]1CC(C)(C)OC1=O | -3 | 0.38 |
| CN1CC[C@H](C(=O)N2CCC(c3ccccc3)CC2)CC1=O | -6 | 0.77 |
| CCN1CCN(C(=O)C2CC(c3cccc(OC)c3)NS(=O)(=O)N2C)CC1 (stereo not given) | -32 | 2.85 |
| CC1=CC[C@H]2CN(Cc3cnc4c(-c5ccccc5)cnn4c3)C[C@H]2C1 | -15 | 1.52 |
| CCCc1ccc(CN[C@@H](C(=O)O)c2ccnn2C)s1 | -11 | 2.1 |
| CN(CCc1cnccn1)Cc1c(F)ccc(C2OCCO2)c1Cl | 5 | -0.54 |
| CCNC(=O)N1CCC2(CC1)CN(c1cccc(F)c1)[C@@H]2c1ccccc1 | -1 | 0.19 |
| CC(C)N(C)CC(=O)NC[C@H]1COC2(CCCCCC2)O1 | 0 | 0.04 |
| O=C(NC1CCCCCC1)N[C@H]1CCS(=O)(=O)C1 | -10 | 1.77 |
| O=C(CN1CCCNC1=O)Nc1nc2cc(F)c(F)cc2s1 | 0 | -0.06 |
| C[C@H](Nc1ccc(C#N)nn1)C1CCN(CC(F)(F)F)CC1 | 12 | -1.6 |
| CN(Cc1ccccc1)[C@H]1CCCN(Cc2ccc3nonc3c2)C1 | 1 | -0.1 |
| CN(CC[C@H]1CCCN1C)Cc1cnc2ccccc2c1 | 0 | 0.06 |
| COc1cc2c(cc1OC)CN(C(=O)c1ccc(OCc3cccnc3)cc1)CC2 | 11 | -1.44 |
| O=C(NCc1ccc2c(c1)OCO2)[C@@H]1COC2(CCN(C(=O)c3ccccc3F)CC2)N1C(=O)c1ccccc1 | -3 | 0.44 |

| SMILES | % Inhibition [%] | Z score |
| --- | --- | --- |
| Cc1nn(Cc2cc(-c3ccco3)on2)c(=O)c(C#N)c1C | -15 | 1.39 |
| O=C(Cc1cccs1)N(CCn1ccc(C(F)(F)F)n1)C1CCCC1 | -1 | 0.2 |
| O=C(COc1cccc(Cl)c1)NCC1(N2CCOCC2)CCCCC1 | -19 | 1.71 |
| COc1cc(Br)ccc1CNC(=O)N1CC(CO)C1 | -16 | 2.11 |
| Cc1ccc(C(=O)N2CCC(N3CCC[C@H](C(=O)N4CCCC4)C3)CC2)cc1 | -12 | 1.21 |
| Cc1nn(C)c(C)c1-c1ccnc(N2CCC[C@H]2c2nc(-c3cccnc3)no2)n1 | -9 | 1.38 |
| Fc1ccccc1OCCNCc1cnc(N2CCOCC2)nc1 | -8 | 1.41 |
| CN(Cc1cnn(C)c1)c1ccncc1Cl | -5 | 0.69 |
| Cc1cc(N2CC[C@@]3(CCCN(CCc4ccccc4)C3)C2)nc(N)n1 | 16 | -2.54 |
| CCCn1cc(C(=O)NCCc2cncn2C)cn1 | -11 | 1.24 |
| OC[C@H]1CCCCN1C1CCCCCC1 | 2 | -0.38 |
| Cc1nc(NC2CC(=O)N3CCCCC23)nc(N(C)C)n1 (stereo not given) | -43 | 5.01 |
| CCc1ccc(S(=O)(=O)N2CCC[C@H]2c2cc(CC)no2)cc1 | -13 | 1.81 |
| Cc1cnc(CN(C)CCC2(O)CCCC2)cn1 | 3 | -0.58 |
| Cc1sc(C(=O)N2CCO[C@H](C(N)=O)C2)cc1-c1ccc(F)cc1 | -13 | 1.26 |
| Cc1nnc(CN2CC3(C)CN(Cc4ccccc4)CC3(C)C2)n1C (stereo not given) | -6 | 0.78 |
| CCc1ccccc1NC(=O)CN1CCCN(c2nc(C)ns2)CC1 | -9 | 1.07 |
| c1cc2ccc(-c3nc(C4CCOCC4)n[nH]3)cc2[nH]1 | -6 | 0.96 |
| Cc1cc(C(=O)N2CCC(C)(c3noc(-c4ccccn4)n3)CC2)c(C)n1Cc1ccc(F)cc1 | -15 | 1.96 |
| O=C(NC[C@H]1CCCN(c2ccncc2)C1)c1ccccc1F | 9 | -1.14 |
| CCOc1ncccc1NC(=O)C1=NN(c2ccccc2)C(=O)CN1 | -10 | 2.04 |
| COc1ccc([C@H](C)N(C)CCn2cnnc2C)c(OC)c1 | -15 | 2.19 |
| Cn1cc(CNC[C@H]2Cn3c(-c4ccc(F)cc4)cnc3CO2)cn1 | 30 | -3.38 |
| CN(C)c1ccc(Nc2ncnc3c(F)cccc23)cn1 | -8 | 0.97 |
| O=C(c1ncccc1O)N1CCC[C@H]1c1nc(-c2ccccc2)no1 | 0 | 0.03 |
| Cc1c(C#N)cccc1NC(=O)N1CCC[C@H](OCC2CC2)C1 | -7 | 0.75 |
| Cc1cc(C)cc([C@@H](NC(=O)NCC2(CO)CC2)c2cccnc2)c1 | -2 | 0.21 |
